According to paper PMC4336329 (PLoS ONE, 2015):
The campaign covered roughly 310,000 compounds. About 2,200 (0.71%) showed an effect of 50% or more. The effect is printed as a negative number. Some of the results follow.

molecular target: human ether-à-go-go-related gene (hERG) potassium channel (human, UniProt Q12809); assay: primary screen, population patch clamp on CHO cells stably expressing hERG
Sequence (Q12809 whole entry, looked up): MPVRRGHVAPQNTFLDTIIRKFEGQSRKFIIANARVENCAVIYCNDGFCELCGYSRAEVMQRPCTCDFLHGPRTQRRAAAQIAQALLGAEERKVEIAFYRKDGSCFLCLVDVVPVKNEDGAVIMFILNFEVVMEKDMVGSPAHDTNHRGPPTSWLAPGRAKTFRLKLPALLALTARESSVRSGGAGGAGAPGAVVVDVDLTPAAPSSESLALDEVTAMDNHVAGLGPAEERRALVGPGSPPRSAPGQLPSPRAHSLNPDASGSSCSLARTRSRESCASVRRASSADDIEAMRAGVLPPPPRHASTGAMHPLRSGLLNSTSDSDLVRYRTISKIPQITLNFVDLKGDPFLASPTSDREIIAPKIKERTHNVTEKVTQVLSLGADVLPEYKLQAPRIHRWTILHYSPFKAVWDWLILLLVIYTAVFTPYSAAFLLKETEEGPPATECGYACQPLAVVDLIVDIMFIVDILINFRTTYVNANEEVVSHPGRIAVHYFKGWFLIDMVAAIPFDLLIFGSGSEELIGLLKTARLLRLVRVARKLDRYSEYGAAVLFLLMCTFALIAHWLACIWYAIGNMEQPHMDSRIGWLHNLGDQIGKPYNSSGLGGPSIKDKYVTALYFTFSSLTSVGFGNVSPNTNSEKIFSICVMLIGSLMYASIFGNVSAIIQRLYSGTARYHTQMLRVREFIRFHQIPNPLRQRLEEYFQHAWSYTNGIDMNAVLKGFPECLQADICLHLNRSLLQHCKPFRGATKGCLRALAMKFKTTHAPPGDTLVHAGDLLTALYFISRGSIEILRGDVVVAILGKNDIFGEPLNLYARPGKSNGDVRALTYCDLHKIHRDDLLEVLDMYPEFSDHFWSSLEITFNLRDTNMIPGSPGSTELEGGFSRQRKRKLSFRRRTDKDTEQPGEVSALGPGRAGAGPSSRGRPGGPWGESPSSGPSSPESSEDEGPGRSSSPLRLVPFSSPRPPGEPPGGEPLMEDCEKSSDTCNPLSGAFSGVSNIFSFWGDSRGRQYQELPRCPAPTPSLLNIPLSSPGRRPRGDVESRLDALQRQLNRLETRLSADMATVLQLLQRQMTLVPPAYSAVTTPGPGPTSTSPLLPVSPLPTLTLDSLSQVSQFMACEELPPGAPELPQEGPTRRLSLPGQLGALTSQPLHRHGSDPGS

SMILES	hERG current change (%, negative = inhibition) at 1uM [%]
COC(=O)c1cccc(NC(=S)NCCC2=CCCCC2)c1	15
CN(CCc1ccccn1)Cc1ccc(Cl)cc1Cl	-54.1
COc1ccc(/C=N/N2CCN(C3c4ccccc4-c4ccccc43)CC2)cc1O	6.65
Cc1ccc(C)c(S(=O)(=O)NCc2ccc(C(=O)N3CCOCC3)cc2)c1	-1.98
Cc1ccc(C)c(N2CCN(c3cnn(-c4nc5ccccc5s4)c(=O)c3Cl)CC2)c1	6.23
CC(C)Oc1ccc(OCCNC2CCCC2)cc1	6.21
COc1ccc(NC(=O)N2CCNC(=O)C2CC(=O)Nc2ccc(F)cc2)cc1 (stereo not drawn)	9.9
O=S(=O)(c1ccc(F)cc1)n1ccc(-c2cccc(OCc3c(F)cccc3Cl)c2)n1	3.43
Cc1[nH]c2ccccc2c1C(=O)CSC(=S)N(C)C	18.4
C/C(=N\OCC(=O)OCC(=O)NCc1ccccc1)c1ccc2c(c1)OCO2	3.38
Cc1ccc2nc(NC(=O)c3ccc(S(=O)(=O)N4CCCc5ccccc54)cc3)sc2c1	3.64
O=C(COc1ccc2ccccc2c1)NNC(=O)c1ccc([N+](=O)[O-])cc1	1.81
O=C(NNC(=O)c1ccc2ccccc2c1O)NC1CCCCC1	17.9
CC(C)N(C(=O)CSc1ccc(S(=O)(=O)N2CCCCC2)cn1)c1ccccc1	8.32
O=C(CCc1nc(-c2ccccc2)c(-c2ccccc2)o1)OCc1ccc(Br)cc1	13
O=C(NCc1cccnc1)C1CC(=O)N(c2ccc(F)cc2)C1 (stereo not drawn)	3.05
CN(Cc1ccc(F)cc1)C(=O)c1cccc(OCc2ccccc2)c1	5.67
COc1cc(/C=C/C(=O)NCCc2ccc(S(N)(=O)=O)cc2)ccc1OCC#N	9.48
Cc1oc(C(=O)O)cc1COc1ccc2c3c(c(=O)oc2c1C)CCC3	8.04
Cn1ccnc1SC(=O)N1c2ccccc2Sc2ccccc21	3.58
Cc1ccc(NC(=O)CCCCCCCCCCC2COCCO2)c(C)c1 (stereo not drawn)	12.3
Cn1cnnc1Sc1ccc(/C=C/C(=O)c2ccc(O)cc2)cc1[N+](=O)[O-]	7.42

SMILES	hERG current change (%, negative = inhibition) at 1uM [%]
COc1ccc(-c2cc(=O)[nH]c(=O)[nH]2)cc1	0.268
COc1ccc([N+](=O)[O-])cc1N(CC(=O)Nc1ccccc1C(=O)N1CCCC1)S(C)(=O)=O	-0.636
O=C1c2ccccc2C(Nc2ccc(Cl)cn2)N1c1ccccn1 (stereo not drawn)	5.31
O=C(CSc1nnc(-c2cccnc2)n1Cc1ccccc1)NCc1ccccc1	12.8
CCc1ccc(NC(=O)C(=O)NNC(=O)c2cccs2)cc1	0.894
CCN(CC(=O)Nc1ccc(NC(C)=O)cc1)CC(=O)Nc1cccc(Cl)c1	3.34
CC1CCN(S(=O)(=O)c2ccc3c(c2)N(CC(=O)NCCCN2CCCCC2C)C(=O)CS3)CC1 (stereo not drawn)	7.17
CC(=O)N1CC(=O)N=C1SCC(=O)Nc1nc(-c2ccccc2)c(-c2ccccc2)s1	2.78
C/C(=C1/SC(N2CCCC2)=NC1=O)c1ccc(Br)cc1	-21.4
CCc1c(C)[nH]c(=S)c(C#N)c1C	9.94
O=C(COc1ccc(Cl)cc1)NNC(=O)c1ccncc1	1.14
O=C(OCc1cccc(F)c1)c1ccc2c(c1)-c1ccccc1C2=O	-3.64
O=C(OC(C(=O)NCc1ccco1)c1ccc(Cl)cc1)c1cccs1 (stereo not drawn)	8.46
COC(=O)c1nn(-c2ccccc2)nc1-c1nn(-c2ccccc2)nc1C(=O)OC.Cl	9.09
O=C(Nc1ccc(S(=O)(=O)Nc2ncccn2)cc1)c1ccc(Cl)c([N+](=O)[O-])c1	10.9
CC(C)Cc1ccc(CN2CCCC(NC(=O)c3cccc(-n4cnnc4)c3)C2)cc1 (stereo not drawn)	-49.7
CC(=O)Oc1cc2c(C(C)=O)coc2c2ccccc12	2.24
Cc1ccc2nc(N3C(=O)C(O)=C(C(=O)c4ccco4)C3c3cccs3)sc2c1.O=C(O)C(=O)O (stereo not drawn)	3.52
O=C(CCc1ccccc1)NNC(=O)COc1ccc(Br)cc1	11
CCCC1Oc2ccccc2C(=O)N(CC(=O)c2ccc3c(c2)OCCO3)C1=O (stereo not drawn)	20.8
O=C(O)/C=C/c1cn(-c2ccccc2)nc1-c1cccc([N+](=O)[O-])c1	11.9
CCOC(=O)C1=C(N)OC2=C(C(=O)CC(C)(C)C2)C1c1cccs1 (stereo not drawn)	7.83

SMILES	hERG current change (%, negative = inhibition) at 1uM [%]
CC(Nc1nc(N2CCCC2)nc2ccccc12)c1ccccc1 (stereo not drawn)	-84.6
COc1ccc(CN2CCN(C(=O)C3CCN(S(=O)(=O)c4cccs4)CC3)CC2)c(OC)c1OC	10.1
CC(C)N(Cc1cnn(C)c1)C(=O)c1ccc(OC2CCN(Cc3ccccn3)CC2)cc1	15.1
COC(=O)c1ccc(CSc2nc3ccc(C)cc3[nH]2)o1	8.54
CCOC(=O)c1c(-c2cccs2)csc1NC(C)=O	9.04
O=C(c1cccc(-c2ccccc2)c1)N1CC[C@@H](N2CCC(O)CC2)[C@H](O)C1	6.95
Cc1ccccc1OCC(=O)NCC1CCCO1 (stereo not drawn)	10.3
N#Cc1c(F)cccc1N1CCC(C#N)CC1	12.9
Cc1ccc(CC(=O)N2CCN(c3cccc(C(F)(F)F)c3)CC2)cc1	3.13
CC1=C(C(=O)NC2CCCc3c2cnn3-c2ccc(F)cc2F)OCCO1 (stereo not drawn)	16
Cc1cccc2c3c([nH]c12)C(=O)CC(C)(C)S3	13
NC(=O)C1CCN(C(=O)c2ccc(C(F)(F)F)cc2)CC1	5.61
O=C(CN1CCOc2ccccc21)N1CCC(Cc2ccccc2)CC1	7.19
COc1ccc(CN2CCNC(=O)C2CC(=O)NC2CCCCC2)c(OC)c1 (stereo not drawn)	7.83
CCCNC(=O)/C=C/c1ccc(S(=O)(=O)Nc2ccccc2OC)cc1	5.44
COC(=O)CNC(=O)COc1ccccc1	7.31
CN1CCN(c2ccc(S(=O)(=O)N3CCCCC3)cc2NC(=O)/C=C/c2ccc(Cl)c([N+](=O)[O-])c2)CC1	6.68
CC(=O)c1c(C(C)=O)c(C)n(-c2nc(-c3ccc(Br)cc3)c(C)s2)c1C	14
S=c1[nH]nc(-c2cc3c(s2)-c2ccccc2CC3)o1	14.5
CCOC(=O)N1CCC(NC(=O)c2cnc3n(c2=O)CCS3)CC1	14
CCC(C)(C(=O)NC1CCCCC1)N(Cc1cccs1)C(=O)CC1NC(=O)NC1=O (stereo not drawn)	5.57
COc1ccccc1N1CCN(C(=O)C(C)N(c2ccc(C)c(C)c2)S(C)(=O)=O)CC1 (stereo not drawn)	4.93

SMILES	hERG current change (%, negative = inhibition) at 1uM [%]
Cc1cc(OCC(=O)N2CCC[C@@H]2C(=O)O)c2c(C)c(C)c(=O)oc2c1	13.2
N#Cc1ccc(C(=O)OCC(=O)NC(=O)NC2CCCCC2)cc1	12.3
Cc1cc(NC(=O)/C=C/C(=O)N(CC(=O)NC2CCCC2)c2cccc3ccccc23)no1	4.93
COc1cc(OC)c(NC(=O)CCNC(=O)Cn2ccc3ccccc3c2=O)cc1Cl	12.3
CC(C)(C)n1nc(-c2ccc(Cl)cc2)c2c(N)ncnc21	6.91
CCC(=O)Nc1ccccc1C(=O)OCC(=O)c1ccccc1	4.17
O=S1(=O)CCC(NS(=O)(=O)/C=C/c2ccccc2)C1 (stereo not drawn)	-3.6
CCC(=O)Oc1c(S(=O)(=O)c2ccc(C)cc2)c(C)nn1C(C)(C)C	5.44
CCOC(=O)c1cc2n(c1/N=C/N(C)C)-c1ccccc1C2=O	10.2
COc1ccc(-c2cc(C)no2)cc1S(=O)(=O)N1CCOc2ccc(Cl)cc21	8.79
O=C(NNC(=O)c1cc2cc(Br)ccc2oc1=O)c1ccc(O)cc1O	9.88
CN1C(=O)C(=CN2CCN(C(=O)c3ccco3)CC2)C(=O)N(C)C1=S	11.1
Cc1ccc(C(=O)NCCOc2ccc(Cl)cc2)cc1	-1.72
Cn1c(CNC(=O)CNS(=O)(=O)c2ccccc2)cc(=O)n(C)c1=O	17.2
Cc1ccc(-c2nnc(-c3cccc(Br)c3)o2)cc1	8.38
CCOC(=O)c1ccc(NS(=O)(=O)c2cc3c4c(c2)CCN4C(=O)CC3)cc1	-2.78
O=C1COc2ccc(S(=O)(=O)CCC(=O)NC3CCCCC3)cc2N1	11
Br.CC(=O)c1sc(Nc2ccccn2)nc1C	9.58
NS(=O)(=O)c1ccc(N=Nc2c(O)[nH]c3ccc(Br)cc23)cc1	14.6
CCCNC(=O)COC(=O)c1ccc(Cl)c(S(=O)(=O)N2CCCC2)c1	2.33
CCn1ccnc1[C@@H]1C[C@H]2CN(Cc3ccccc3OC)C(=O)[C@]23CCCN13	19.8
